By IC50 is meant the dose at which the fit gives 50% viability; a limit (>, <) means that the fit lies beyond the doses tested. AUC, from the same fit, is the share of area under the viability curve across the 256-fold dose range; the more sensitive the line, the further below 1.
Compound: NC1(c2ccc(-c3nc4ccn5c(=O)[nH]nc5c4cc3-c3ccccc3)cc2)CCC1 [MK-2206]
Assay: Viability of human cancer cell lines after 72 h of drug (GDSC screen)
Procedure: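 Human cancer cell lines in 384-well plates, medium with 10% serum, drug for 72 h over a 256-fold dose range (nine 2-fold or five 4-fold steps up to the top dose). Adherent lines were fixed and stained with the nucleic acid dye Syto60, suspension lines read with resazurin; signal relative to control wells, capped at 0 and 100%. One two-parameter sigmoid per drug and line, fitted in a mixed model over all curves with the slope shared within a line.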

Row | Cell Line | AUC | IC50
1 | CCRF-CEM (lymphoblastic leukaemia, suspension, top dose 4 µM) | 0.383 | 0.126 µM
2 | P31-FUJ (acute myeloid leukaemia, suspension, top dose 4 µM) | 0.886 | 2.62 µM
3 | VM-CUB-1 (bladder, adherent, top dose 2 µM) | 0.852 | 1.46 µM
4 | BT-474 (breast, adherent, top dose 4 µM) | 0.834 | 3.04 µM
5 | MFE-280 (endometrium, adherent, top dose 4 µM) | 0.789 | 2.3 µM
6 | ESS-1 (endometrium, adherent, top dose 4 µM) | 0.912 | > 4 µM
7 | NOMO-1 (acute myeloid leukaemia, suspension, top dose 4 µM) | 0.709 | 1.06 µM
8 | AM-38 (glioma, semi-adherent, top dose 4 µM) | 0.924 | > 4 µM
9 | MPP-89 (mesothelioma, adherent, top dose 4 µM) | 0.934 | > 4 µM
10 | KON (head and neck, adherent, top dose 4 µM) | 0.7 | 0.899 µM
11 | LB771-HNC (head and neck, adherent, top dose 4 µM) | 0.899 | > 4 µM
12 | JHOS-3 (ovary, adherent, top dose 4 µM) | 0.889 | > 4 µM
13 | C-33-A (cervix, adherent, top dose 4 µM) | 0.97 | > 4 µM
14 | TE-12 (oesophagus, suspension, top dose 4 µM) | 0.943 | > 4 µM
15 | REH (B-cell leukaemia, suspension, top dose 4 µM) | 0.584 | 0.42 µM
16 | SW948 (large intestine, adherent, top dose 4 µM) | 0.942 | > 4 µM
17 | NCI-H146 (small cell lung carcinoma, suspension, top dose 4 µM) | 0.995 | > 4 µM
18 | IPC-298 (melanoma, adherent, top dose 4 µM) | 0.975 | > 4 µM
19 | NCI-N87 (stomach, adherent, top dose 4 µM) | 0.816 | 3.62 µM
20 | KNS-81-FD (glioma, adherent, top dose 4 µM) | 0.926 | > 4 µM
21 | JVM-2 (lymphoid neoplasm, suspension, top dose 4 µM) | 0.763 | 1.76 µM

Row | Cell Line | AUC | IC50
22 | KCL-22 (chronic myeloid leukaemia, suspension, top dose 4 µM) | 0.941 | > 4 µM
23 | MEG-01 (chronic myeloid leukaemia, suspension, top dose 4 µM) | 0.957 | > 4 µM
24 | LK-2 (lung squamous cell carcinoma, adherent, top dose 4 µM) | 0.942 | > 4 µM
25 | SKN (uterus, adherent, top dose 4 µM) | 0.764 | 1.75 µM
26 | EFO-21 (ovary, adherent, top dose 4 µM) | 0.944 | > 4 µM
27 | TMK-1 (stomach, adherent, top dose 4 µM) | 0.785 | 1.82 µM
28 | LS-411N (large intestine, adherent, top dose 4 µM) | 0.943 | > 4 µM
29 | KMS-11 (myeloma, suspension, top dose 4 µM) | 0.988 | > 4 µM
30 | BL-41 (Burkitt lymphoma, suspension, top dose 4 µM) | 0.893 | 2.78 µM
31 | SHP-77 (small cell lung carcinoma, semi-adherent, top dose 4 µM) | 0.883 | 3.5 µM
32 | NCI-H82 (small cell lung carcinoma, suspension, top dose 4 µM) | 0.925 | > 4 µM
33 | COR-L279 (small cell lung carcinoma, suspension, top dose 4 µM) | 0.981 | > 4 µM
34 | ESO51 (oesophagus, semi-adherent, top dose 4 µM) | 0.866 | > 4 µM
35 | KARPAS-231 (B-cell leukaemia, suspension, top dose 4 µM) | 0.524 | 0.287 µM
36 | NCI-H28 (mesothelioma, adherent, top dose 4 µM) | 0.877 | > 4 µM
37 | NCI-H2085 (lung adenocarcinoma, adherent, top dose 2 µM) | 0.839 | 1.52 µM
38 | COR-L23 (large cell lung carcinoma, adherent, top dose 4 µM) | 0.928 | > 4 µM
39 | CHL-1 (melanoma, adherent, top dose 4 µM) | 0.909 | > 4 µM
40 | Farage (B-cell lymphoma, suspension, top dose 4 µM) | 0.629 | 0.528 µM
41 | NCI-H23 (lung adenocarcinoma, adherent, top dose 4 µM) | 0.923 | > 4 µM
42 | EFO-27 (ovary, adherent, top dose 4 µM) | 0.904 | > 4 µM

Row | Cell Line | AUC | IC50
43 | NB14 (neuroblastoma, adherent, top dose 4 µM) | 0.879 | 3.67 µM
44 | Hey (ovary, adherent, top dose 4 µM) | 0.792 | 1.7 µM
45 | COR-L95 (small cell lung carcinoma, adherent, top dose 4 µM) | 0.848 | 3.71 µM
46 | RCC-JW (kidney, adherent, top dose 4 µM) | 0.701 | 0.934 µM
47 | AGS (stomach, adherent, top dose 4 µM) | 0.662 | 0.667 µM
48 | Calu-6 (lung adenocarcinoma, adherent, top dose 4 µM) | 0.958 | > 4 µM
49 | SK-LU-1 (lung adenocarcinoma, adherent, top dose 4 µM) | 0.918 | > 4 µM
50 | M059J (glioma, adherent, top dose 4 µM) | 0.943 | > 4 µM
51 | WM793B (melanoma, adherent, top dose 4 µM) | 0.98 | > 4 µM
52 | SK-MG-1 (glioma, adherent, top dose 4 µM) | 0.803 | 2.02 µM
53 | YAPC (pancreas, adherent, top dose 4 µM) | 0.954 | > 4 µM
54 | D-542MG (glioma, adherent, top dose 4 µM) | 0.845 | 3.92 µM
55 | NCI-H2291 (lung adenocarcinoma, adherent, top dose 4 µM) | 0.889 | > 4 µM
56 | OACp4C (oesophagus, adherent, top dose 4 µM) | 0.639 | 0.657 µM
57 | SNU-C1 (large intestine, suspension, top dose 4 µM) | 0.672 | 0.953 µM
58 | NCI-H1436 (small cell lung carcinoma, suspension, top dose 4 µM) | 0.878 | > 4 µM
59 | KELLY (neuroblastoma, adherent, top dose 4 µM) | 0.968 | > 4 µM
60 | JHU-011 (head and neck, adherent, top dose 4 µM) | 0.716 | 1.01 µM
61 | Calu-3 (lung adenocarcinoma, adherent, top dose 4 µM) | 0.856 | > 4 µM
62 | EB2 (Burkitt lymphoma, suspension, top dose 4 µM) | 0.99 | > 4 µM
63 | EW-16 (Ewing sarcoma, adherent, top dose 4 µM) | 0.762 | 1.49 µM

Row | Cell Line | AUC | IC50
64 | SISO (cervix, adherent, top dose 4 µM) | 0.817 | 2.11 µM
65 | FU97 (stomach, adherent, top dose 4 µM) | 0.593 | 0.453 µM
66 | RXF393 (kidney, adherent, top dose 4 µM) | 0.745 | 1.7 µM
67 | DMS-273 (small cell lung carcinoma, adherent, top dose 4 µM) | 0.745 | 1.33 µM
68 | COLO-684 (endometrium, suspension, top dose 4 µM) | 0.563 | 0.381 µM
69 | OAW-42 (ovary, adherent, top dose 4 µM) | 0.664 | 0.745 µM
70 | ECC10 (stomach, suspension, top dose 4 µM) | 0.837 | 2.85 µM
71 | NCI-H2452 (mesothelioma, adherent, top dose 4 µM) | 0.971 | > 4 µM
72 | GI-1 (glioma, adherent, top dose 4 µM) | 0.934 | > 4 µM
73 | CAL-62 (thyroid, adherent, top dose 4 µM) | 0.966 | > 4 µM
74 | RPMI-7951 (melanoma, adherent, top dose 4 µM) | 0.903 | > 4 µM
75 | OVK-18 (ovary, adherent, top dose 4 µM) | 0.542 | 0.329 µM
76 | PCI-4B (head and neck, adherent, top dose 4 µM) | 0.955 | > 4 µM
77 | HSC-2 (head and neck, adherent, top dose 4 µM) | 0.962 | > 4 µM
78 | LAMA-84 (chronic myeloid leukaemia, suspension, top dose 4 µM) | 0.83 | 2.55 µM
79 | HCC1937 (breast, adherent, top dose 4 µM) | 0.847 | 3.64 µM
80 | H2795 (mesothelioma, adherent, top dose 4 µM) | 0.864 | 3.41 µM
81 | OV-7 (ovary, adherent, top dose 4 µM) | 0.826 | > 4 µM
82 | CaR-1 (large intestine, adherent, top dose 4 µM) | 0.938 | > 4 µM

Reference: the supplement of paper PMC4967469
